This is one part of the list. At the low end of the ranking the order means little. The protein was read in a cell extract, so binding may be indirect.

This experiment has as its target T1, HNF4alpha2 (COS-7 nuclear extract) (UniProt P41235).
T1 sequence: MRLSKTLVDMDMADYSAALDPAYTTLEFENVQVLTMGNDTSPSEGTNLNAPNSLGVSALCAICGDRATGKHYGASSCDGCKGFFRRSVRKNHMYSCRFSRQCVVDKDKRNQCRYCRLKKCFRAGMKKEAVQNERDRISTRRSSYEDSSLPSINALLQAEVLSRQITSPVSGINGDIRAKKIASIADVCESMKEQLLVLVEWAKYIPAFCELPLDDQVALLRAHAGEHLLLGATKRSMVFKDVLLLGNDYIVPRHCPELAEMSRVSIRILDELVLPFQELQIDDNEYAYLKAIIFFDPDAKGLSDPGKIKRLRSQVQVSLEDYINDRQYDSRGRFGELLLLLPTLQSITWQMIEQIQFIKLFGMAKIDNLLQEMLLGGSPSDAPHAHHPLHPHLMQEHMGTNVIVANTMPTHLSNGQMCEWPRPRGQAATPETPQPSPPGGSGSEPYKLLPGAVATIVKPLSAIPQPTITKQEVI
As to the kind of experiment: protein-binding microarray. To be noted: COS-7 nuclear extract on double-stranded Agilent 4x180k PBM; binding buffer, salt, pH and temperature not given; high values mean tight binding; double strand, one strand shown; sequences stand for … in …GCCTAGGGAGATTAGAGTATCGGTCGA
For TGTACCCAGCACTGTCAGCAGGGGGATCCA, the binding signal (log2 normalized intensity) is -1.2.

On to ATCTTACAGGCTTATACGTGGAAGAAACTC, for which the binding signal (log2 normalized intensity) is 0.191.

As for GGATCAGAGACACGATGTTCTTGCCAAGTC, the binding signal (log2 normalized intensity) was -0.997.

With GGCATTGGAGATATGATAGCTGACAAGCAA, the binding signal (log2 normalized intensity) was -1.15.

Take AAAATTCCCCAGGAGGAGATAAGATCAGTA: the binding signal (log2 normalized intensity) is -0.13.

With CATCAAATCCTCGGAAGACGCACCTCTGCA, the binding signal (log2 normalized intensity) was -1.11.

In the case of CCCTCCCTCTTCCCTCATATAATTTACATA, the binding signal (log2 normalized intensity) was found to be 2.23.

As for GAAAGTAAGTGCACAGCCAGAACTGAGCCC, the binding signal (log2 normalized intensity) was -1.23.

For TTCTTGGGCAAGAAAGGGGTCAGCAAAAAT, the binding signal (log2 normalized intensity) was 1.24.

For GTCAGCCCTGCCATCTTGTGGCCATGCTTA, the binding signal (log2 normalized intensity) was -0.96.

On to TTAGCCAGGATCAGATTTGATAGCTGGGCT, for which the binding signal (log2 normalized intensity) was -1.17.

TTTCACTGCCTATCTCCTATGAGCCAAACA: the binding signal (log2 normalized intensity) was -1.24.

As to CGCTCCGCGAGGTGAGCCATTGGCTGGGGT, the binding signal (log2 normalized intensity) amounted to 0.81.

As for ATAGACATGACTTACTTGGCATCATCAAAC, the binding signal (log2 normalized intensity) is -1.

For TATAGTGCTCCCTCCTGTGGTAATAAGTTG, the binding signal (log2 normalized intensity) was determined as 1.68.

With AGCTAATCTGACCAAGTGAACTGTGACCTG, the binding signal (log2 normalized intensity) was 4.22.

ATTGGCAGGCATTCCACACTGCAGGCTCTG: the binding signal (log2 normalized intensity) is -1.15.

For the sequence ATCAGCATGGCTGCAGAGAACAGCAGCTAT, the binding signal (log2 normalized intensity) is -0.939.

As to TAATTGCTTGTTGGTTCAAGAGAAATGTTA, the binding signal (log2 normalized intensity) stood at 1.5.

Take TGGAATAGATCAGCTTTCAACACTCTGGAT: the binding signal (log2 normalized intensity) is -0.269.

Turning to ATCCTAGTCTTTGCCCCACTGCAAGTTGAC, the binding signal (log2 normalized intensity) worked out at 2.34.

On to AAGGCAAACACTCAAGGTCCAAACAGGGTA, for which the binding signal (log2 normalized intensity) was -0.735.

CCAAATCTAGCATCAGTGAGTCAAGAGATA: the binding signal (log2 normalized intensity) is -0.577.

Regarding GACAGCTGGGCCCTGCCTGACCTGCCCTTT, the binding signal (log2 normalized intensity) came to 4.42.

For AGCCTCACTTGCTGATAAGGCAGACCAGGG, the binding signal (log2 normalized intensity) was -1.06.

As for CATCTGTCATTCCCTCACTCTAGAACCTTC, the binding signal (log2 normalized intensity) was found to be 1.14.

In the case of CTGTGAAGACTGCAGCAAAGTCCTCCAACT, the binding signal (log2 normalized intensity) is -1.19.

In the case of ATGCATGTCCCTCCTCAACCTCTCCAATGC, the binding signal (log2 normalized intensity) came to 1.93.

For the sequence CTCCTGCTATCAGTACTGAAACATGCCTAT, the binding signal (log2 normalized intensity) was -1.02.

Consider CCCTCTCCCCACCATTAACCCTACAGTCCT, for which the binding signal (log2 normalized intensity) is 3.15.

For the sequence TCTCAGGTTGTGTTTGCAGTGAGTAACCTT, the binding signal (log2 normalized intensity) is 2.28.

In the case of ACAAAATTAAGTGATTTGCCCAATATAATA, the binding signal (log2 normalized intensity) was -1.19.

As to AGGCCCTCGGCATCATGCCCTTTGGCCCCC, the binding signal (log2 normalized intensity) is 7.28.

On to CCTGCAGGTGAAACTCCAGGCTCCAAGGGT, for which the binding signal (log2 normalized intensity) is -1.17.

Consider TGGAATTTGCAAGTGGAGATTTCAGCCGCT, for which the binding signal (log2 normalized intensity) was -1.2.

Consider CCTCCATTTCACAAATGAGGGGACAAAGTT, for which the binding signal (log2 normalized intensity) stood at 1.02.

Regarding TGTTTCAGAGTAGCCTATCAGAAGAATCTG, the binding signal (log2 normalized intensity) is -0.645.

With TCACTGGTGATGTGAACCTCGATCCCTGGC, the binding signal (log2 normalized intensity) stood at 2.81.

For GATTACCTAAACAGCAACTGTAGTGCATAG, the binding signal (log2 normalized intensity) is -1.1.

In the case of CAAACAAAAGGGACAAAGGTGAGTGCAACC, the binding signal (log2 normalized intensity) came out at 0.534.

On to ACCTGCTTGTTTTCCCAACAGGTGTTAAAA, for which the binding signal (log2 normalized intensity) was found to be 0.0617.

Regarding AAGGTGTATGTGGACTTTCAACTGCAGGGG, the binding signal (log2 normalized intensity) was found to be 3.47.

With AACTTTATCAAGACTGCAGCCAGGGGCGTA, the binding signal (log2 normalized intensity) is -1.07.

As for CGCGCAGCCAATAGGCGAGGACGCAGTCCC, the binding signal (log2 normalized intensity) was -0.78.

As to AAGCATAACTGTATAACCTGGAACTGAAAG, the binding signal (log2 normalized intensity) was -0.938.

Regarding ACCCGGCAGGCGGGAAAGAAGGCTGGTTTA, the binding signal (log2 normalized intensity) was -1.12.

Turning to TTCCGGATAGCCAAATAGCCTGGTCACTCA, the binding signal (log2 normalized intensity) is -1.22.

ACTTAGAATTTCATTTTGCTCTTTGTTCAG: the binding signal (log2 normalized intensity) worked out at 2.74.

As to AAATATTTGGTGAATAAACAAATAATGGCT, the binding signal (log2 normalized intensity) is -1.22.

With CTGATGCCCTTTGGATTTAGGCAGTTTTTG, the binding signal (log2 normalized intensity) worked out at 2.42.

With GTCTAACCGCAGCAAGACACTTCCAGCCAA, the binding signal (log2 normalized intensity) was -1.18.

On to GGTAATCACCAAACTTCACAATGGGCCCCA, for which the binding signal (log2 normalized intensity) is -1.17.

With AAATGTGAATGGACTCTGCCCTTAGCAGTG, the binding signal (log2 normalized intensity) is 4.37.

Consider CAGTATTGATGTGAGGGTAGGAGCCTAGCT, for which the binding signal (log2 normalized intensity) is -1.13.

In the case of ATAATGCCAGGCAGGAAGGAGCCTGCTTTG, the binding signal (log2 normalized intensity) was -1.15.

As for GACCTTTCTTTATGGACCTTGTCCCTGGAT, the binding signal (log2 normalized intensity) came out at 4.55.

As for CACCAGAGGGAACGCCCGACGCGAAGGCAG, the binding signal (log2 normalized intensity) was -0.973.

For AACTGTCCAGGCTGCACAGTGGGGAGGGCA, the binding signal (log2 normalized intensity) is -1.15.

Consider AATAGGGGCTGGGTAAAATGAGAATGAGAC, for which the binding signal (log2 normalized intensity) was -1.09.

With CACTTCTCTCTCCAAGGCACAGAGAAGAAT, the binding signal (log2 normalized intensity) is -1.07.

On to TTGCAGTGGCAAGGCAAAAGAGACAGGACT, for which the binding signal (log2 normalized intensity) is -1.1.

As for ATAGCTGTTCATTAGACTCAGGGAACTCCC, the binding signal (log2 normalized intensity) amounted to 0.649.

Take CAAACAGACCTCCCCCAACTTACTTAGTGG: the binding signal (log2 normalized intensity) was determined as 1.85.

In the case of AGTGGCAACCCTTGACCCCAGTAACAAAGG, the binding signal (log2 normalized intensity) came to 4.33.

For GTTAGGAAACACTCTGTTTGTAAAGTCTAC, the binding signal (log2 normalized intensity) turned out to be 0.577.

In the case of GCAATTACTCAATAACCACATGAATACACA, the binding signal (log2 normalized intensity) was determined as 0.0621.

As to AGGCTCCCTGCTGCGGAGAGTTCCCTTGGA, the binding signal (log2 normalized intensity) was -1.12.

Regarding GGGGTCTAGAACAGCTCCTTTGAAGCTTCG, the binding signal (log2 normalized intensity) is -1.08.

As to GACCGGTTCCGCGGTCCGCAGCGCTGGTGG, the binding signal (log2 normalized intensity) is -1.18.

As for AAACTGAGATCTAAGCGATAAGGAGGAAGG, the binding signal (log2 normalized intensity) was -1.25.

Consider GCAGGCAGGGACTTTGGCCCACGGTCCTTT, for which the binding signal (log2 normalized intensity) is 2.39.

Take CAGTGAGACAGAAGTAAAACAGGTAGAGAG: the binding signal (log2 normalized intensity) is -1.27.

As to ATATACTGTGTATACAAAGATCAGTGTACT, the binding signal (log2 normalized intensity) is 0.786.
